# From the supplement of paper PMC4967469
# Lines with a small IC50 respond at low doses; where the fit passes the top or lowest dose, that dose stands as a limit. AUC sums up the same curve from the lowest dose to the 256-fold higher top dose: 1 means no effect, lower means more sensitive.
# Compound: FC(F)c1nc2ccccc2n1-c1nc(N2CCOCC2)nc(N2CCOCC2)n1 [ZSTK474]
# Experiment: Viability of human cancer cell lines after 72 h of drug (GDSC screen)
# Protocol: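 Human cancer cell lines in 384-well plates, medium with 10% serum, drug for 72 h over a 256-fold dose range (nine 2-fold or five 4-fold steps up to the top dose). Adherent lines were fixed and stained with the nucleic acid dye Syto60, suspension lines read with resazurin; signal relative to control wells, capped at 0 and 100%. One two-parameter sigmoid per drug and line, fitted in a mixed model over all curves with the slope shared within a line.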
Cell Line,AUC,IC50 [nM]
"ES6 (Ewing sarcoma, adherent, top dose 5.12 µM)",0.533,403
"ES7 (Ewing sarcoma, adherent, top dose 5.12 µM)",0.268,68.2
"ES8 (Ewing sarcoma, adherent, top dose 5.12 µM)",0.604,602
"ES-2 (ovary, adherent, top dose 5.12 µM)",0.961,> 5120
"ESO26 (oesophagus, adherent, top dose 5.12 µM)",0.76,1710
"ESO51 (oesophagus, semi-adherent, top dose 5.12 µM)",0.76,2540
"ESS-1 (endometrium, adherent, top dose 5.12 µM)",0.914,> 5120
"ETK-1 (biliary tract, adherent, top dose 5.12 µM)",0.809,3120
"EVSA-T (breast, adherent, top dose 5.12 µM)",0.592,549
"EW-1 (Ewing sarcoma, semi-adherent, top dose 5.12 µM)",0.368,143
"EW-3 (Ewing sarcoma, adherent, top dose 5.12 µM)",0.7,1280
"EW-7 (Ewing sarcoma, semi-adherent, top dose 5.12 µM)",0.527,376
"EW-11 (Ewing sarcoma, adherent, top dose 5.12 µM)",0.435,202
"EW-13 (Ewing sarcoma, suspension, top dose 5.12 µM)",0.596,604
"EW-16 (Ewing sarcoma, adherent, top dose 5.12 µM)",0.669,969
"EW-18 (Ewing sarcoma, suspension, top dose 5.12 µM)",0.438,214
"EW-24 (Ewing sarcoma, semi-adherent, top dose 5.12 µM)",0.993,> 5120
"EoL-1-cell (haematopoietic neoplasm, suspension, top dose 5.12 µM)",0.883,4370
"FADU (head and neck, adherent, top dose 5.12 µM)",0.935,> 5120
"FLO-1 (oesophagus, adherent, top dose 5.12 µM)",0.72,1810
"FTC-133 (thyroid, adherent, top dose 5.12 µM)",0.983,> 5120

Cell Line,AUC,IC50 [nM]
"FU97 (stomach, adherent, top dose 5.12 µM)",0.71,1280
"FU-OV-1 (ovary, adherent, top dose 5.12 µM)",0.528,390
"Farage (B-cell lymphoma, suspension, top dose 5.12 µM)",0.219,58.9
"G-292 Clone A141B1 (osteosarcoma, adherent, top dose 5.12 µM)",0.662,1190
"G-361 (melanoma, adherent, top dose 5.12 µM)",0.752,1640
"G-401 (kidney, adherent, top dose 5.12 µM)",0.668,990
"G-402 (soft tissue, adherent, top dose 5.12 µM)",0.916,> 5120
"G-MEL (melanoma, adherent, top dose 5.12 µM)",0.835,3310
"GAK (melanoma, adherent, top dose 5.12 µM)",0.93,> 5120
"GAMG (glioma, adherent, top dose 5.12 µM)",0.632,756
"GB-1 (glioma, adherent, top dose 5.12 µM)",0.707,1380
"GCIY (stomach, adherent, top dose 5.12 µM)",0.97,> 5120
"GCT (soft tissue, adherent, top dose 5.12 µM)",0.989,> 5120
"GDM-1 (acute myeloid leukaemia, suspension, top dose 5.12 µM)",0.253,64.8
"GI-1 (glioma, adherent, top dose 5.12 µM)",0.719,1300
"GI-ME-N (neuroblastoma, adherent, top dose 5.12 µM)",0.74,2030
"GMS-10 (glioma, adherent, top dose 5.12 µM)",0.98,> 5120
"GOTO (neuroblastoma, adherent, top dose 5.12 µM)",0.93,> 5120
"GP5d (large intestine, adherent, top dose 5.12 µM)",0.883,4500
"GR-ST (lymphoblastic leukaemia, suspension, top dose 5.12 µM)",0.582,563
"GRANTA-519 (B-cell lymphoma, suspension, top dose 5.12 µM)",0.6,582

Cell Line,AUC,IC50 [nM]
"GT3TKB (stomach, adherent, top dose 5.12 µM)",0.977,> 5120
"H4 (glioma, adherent, top dose 5.12 µM)",0.877,5040
"H9 (lymphoid neoplasm, suspension, top dose 5.12 µM)",0.992,> 5120
"H290 (mesothelioma, adherent, top dose 5.12 µM)",0.892,5120
"H513 (mesothelioma, semi-adherent, top dose 5.12 µM)",0.834,4420
"H2369 (mesothelioma, adherent, top dose 5.12 µM)",0.969,> 5120
"H2373 (mesothelioma, adherent, top dose 5.12 µM)",0.973,> 5120
"H2461 (mesothelioma, adherent, top dose 5.12 µM)",0.957,> 5120
"H2591 (mesothelioma, adherent, top dose 5.12 µM)",0.916,> 5120
"H2595 (mesothelioma, adherent, top dose 5.12 µM)",0.944,> 5120
"H2722 (mesothelioma, adherent, top dose 5.12 µM)",0.944,> 5120
"H2731 (mesothelioma, adherent, top dose 5.12 µM)",0.492,303
"H2795 (mesothelioma, adherent, top dose 5.12 µM)",0.632,735
"H2803 (mesothelioma, adherent, top dose 5.12 µM)",0.879,> 5120
"H2804 (mesothelioma, adherent, top dose 5.12 µM)",0.826,3510
"H2818 (mesothelioma, adherent, top dose 5.12 µM)",0.981,> 5120
"H2869 (mesothelioma, adherent, top dose 5.12 µM)",0.756,2140
"H3118 (head and neck, adherent, top dose 5.12 µM)",0.706,1290
"H3255 (lung adenocarcinoma, adherent, top dose 5.12 µM)",0.876,> 5120
